Measured values taken from the RNAGym collection of RNA variant scans (doi:10.1073/pnas.2313332121).
Variants at the floor of the assay are shown more often than the library holds them.

B1: TPR 5TU (parent)
chain: GGAUCUUCUCGAUCUAACAAAAAAGACAAAUCUGCCACAAAGCUUGAGAGCAUCUUCGGAUGCAGAGGCGGCAGCCUUCGGUGGCGCGAUAGCGCCAACGUUCUCAACUAUGACACGCAAAACGCGUGCUCCGUUGAAUGGAGUUUAUCAUG

Variants of: B1
Test: polymerase ribozyme fitness, log enrichment relative to wild type (log ratio); higher = more active; in vitro selection for triplet polymerase activity
Summary of the method: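 After PCR construction and transcription, each subunit's mutant library from a heterodimeric triplet polymerase ribozyme was annealed with a biotinylated primer, the partner subunit and triplets. Incubation was frozen, at −7 °C, and extended constructs were gel-excised, bound to streptavidin beads and amplified by RT-PCR, in one selection round done in triplicate. Fitness is the logarithm of a genotype's enrichment divided by that of the wild type, from inverse-variance-weighted replicate averages of Illumina-sequenced inputs and outputs. The base of the logarithm is 2, and genotypes needed ≥10 input reads and ≥1 read per output.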

Variant | polymerase ribozyme fitness (log ratio)
U15C C87U A142U | -0.702
U15C C75A C96G | ≤ -4.2
C14U U45G C79G G83U C85G U102C | ≤ -4.2
U15C A47C C54U A89U C95G | -2.01
C14U G94C | -2.9
U15G A21U U31C C54U A66C A122U G133A | ≤ -4.2
U15C A21G A23C G42A A150U | ≤ -4.2
C14U U31C C76U G84U A142G G143U U146G | ≤ -4.2
C14U A19G C38U U61A C76A C85A U139C A150C | ≤ -4.2
U15G A28G A41C G46C G48A C76U G83U A97G U145C A150C | ≤ -4.2
U15G A41U U56A U61A C76G C93G A115U A150U | ≤ -4.2
U15C A23G C27G G67A C85U | ≤ -4.2
C14U G84U A107U A147U | ≤ -4.2
U15G A29U C103A | ≤ -4.2
U15A G48U U53A C76G C85G A97C A98G A106U | ≤ -4.2
C14U C36U G71A G83A C118G | ≤ -4.2
C14U C27U U55G C93G C105G | ≤ -4.2
U15G A40C G42A A49G G62C C93A | ≤ -4.2
U15C U61A A89G A98G | -1.62
U15C A122U | 0.45
C14U C32G G50A G74A C96U G128A | ≤ -4.2
C14U C38U C43A G62C C95A G141C | ≤ -4.2
C14U U45A U55G C75U U101G U102A | ≤ -4.2
U15C C35U U56A A89C | 0.662

Variant | polymerase ribozyme fitness (log ratio)
C14U A23U U31A A47C G92C C96G C131A | ≤ -4.2
U15C C79A G80U A121U C149U | ≤ -4.2
U15G A16U A47C C85U C118G G133C U145C | ≤ -4.2
U15C A24G C76U U145A | ≤ -4.2
C14U C51A A52G U56A C72G | ≤ -4.2
U15A A21G C36G A60C C96A A147C | ≤ -4.2
U15G A26C C35A G50C C93A G94U C96A A98G | ≤ -4.2
C14U G34A U44G C57U C79A C114U G133C G140C | ≤ -4.2
U15A A20U | -0.122
U15C A64C G71A G100A C118U | ≤ -4.2
U15C A30U U31C C36G A40U C51U | ≤ -4.2
C14U G143A | -1.26
C14U C76U C96G C131A | ≤ -4.2
C14U U31G U44C C69A C85G A89G A91U C132U G143C | ≤ -4.2
U15G C18A A23C A60G U104G C123G | ≤ -4.2
U15A A23U A24U C54A G80U C87G C105U A106G | ≤ -4.2
C14U A16C C85U A106C G141A C149A | ≤ -4.2
C14U C54G C87G A107U | ≤ -4.2
U15A A30U G67C C72U G92C | ≤ -4.2
U15A A29C C35A G59A C76U G143C | ≤ -4.2
U15A C35A C54U U61G A121G | ≤ -4.2
C14U C35G A40G U55G U77C C87A | ≤ -4.2
C14U C87U C99U U101G A137C U145G | ≤ -4.2
U15C U56G C79A G143U | ≤ -4.2

Variant | polymerase ribozyme fitness (log ratio)
U15G A20U C87G G94C C125A G133A U134A U139C | ≤ -4.2
U15G A24U G25C C38G C54G C76G G81C C93A C132U | ≤ -4.2
U15A A20C G59A A60U C93G C105U G133U | ≤ -4.2
C14U A20G C69G C87A G128C | ≤ -4.2
C14U C87U U101C C118G | -3.29
U15C A26U C96U C108A U135A | ≤ -4.2
U15C A23G U82A C93G G126A | -4.14
U15G A47U A66G G70U A106G G133A U139C | ≤ -4.2
C14U C18G G25A C85A C123U A150G | ≤ -4.2
C14U U55A C85G C93U C96A U102A A115G | ≤ -4.2
C14U A29U U111G | ≤ -4.2
C14U U56A G74A C85A C87A C125U G143C A150U G152U | ≤ -4.2
U15A G59A A60G C69A A121C G140A | -3.82
U15A A29C A49C A52U | ≤ -4.2
U15C C27U U53A A122G | -1.39
U15G A64G G84A C103U | ≤ -4.2
C14G U135C | ≤ -4.2
C14U C54U C87A A89G C96U A121U A142C | ≤ -4.2
C14U U53G | -3.01
U15C C75U U101G C103A | ≤ -4.2
C14U A21C C123A G140C | ≤ -4.2
C14G U55G G74C U148C | ≤ -4.2
C14U A28U C51U U111G | ≤ -4.2
C14U C32A A150C | ≤ -4.2

Variant | polymerase ribozyme fitness (log ratio)
C14U A150C | ≤ -4.2
C14U A21C A49C C95U A107G G140A | ≤ -4.2
C14U C36U U56A G81U C99A C116A U130G A137U | ≤ -4.2
U15G C18G U45A A60C U61A G74U A91G U134C | ≤ -4.2
C14U A16C C51U A52G C93U C116A A121C | -1.81
U15G A52G U55A C75U G88C U90C A138U | ≤ -4.2
U15A C54G A115G G128A | ≤ -4.2
U15A A24C C76U G86A | ≤ -4.2
C14U A22U C38U A66C C93U A113U | ≤ -4.2
C14U A138C | -3.75
C14U C18A A20C C93A G136A A142C | -2.57
C14U A21C C27U C36A G62U G80C G86A A137C | -3.96
C14U C79A G84A A150G | ≤ -4.2
C14U C43U C72A G84A C93G C95G A142G U144A | ≤ -4.2
U15G A22C A66G G86A G88C U101A C131U A150U U151A | ≤ -4.2
U15A C75G C108U | -4.16
C14G U127G | -4.18
C14U C36G A40C G68C C87G G94U C95U A106G G140C U148A | ≤ -4.2
C14U C85A U134G A142G A150U | ≤ -4.2
U15A A28U A52G U55A C95U | ≤ -4.2
U15C A16U C18U A49C C85G A147G A150U | ≤ -4.2
C14U G83A A120G U139A | ≤ -4.2
C14U A22G A30U G81A A91C G94U C108G | ≤ -4.2
U15G A22C A60G A73U C76G C103A A122U U151A | ≤ -4.2

Variant | polymerase ribozyme fitness (log ratio)
C14U A40G G71A A138U | ≤ -4.2
C14U A28U A52C G88U A91G C96U U134G G140U | ≤ -4.2
U15G A52U | -1.59
U15G A30C C57G U77C C99G C116G U151C | ≤ -4.2
C14U U55A | -1.33
C14U C85G C131U A138U U148A | ≤ -4.2
U15C A17G A37G C57U G128U | ≤ -4.2
U15C A41C A89G C96A C118U U135G | ≤ -4.2
U15C G46A C63A C87G C96U C103A A106G G117A A121U C149A | ≤ -4.2
C14U A19C A28U A29C G86C C96U C118G | ≤ -4.2
C14U C54U C63G G80A C87A G88U C99A G136A G143A | ≤ -4.2
C14U A52C A73G G88C A91G C96U A106G | ≤ -4.2
C14U A37C C38G A39U G50C G94A A97U G141A | ≤ -4.2
C14U G83C A106C | -2.96
C14U A39C G71C C85U A97G | ≤ -4.2
C14U A37C A52C C75U C96U C116A | ≤ -4.2
C14U G50A G58C A121C | -3.27
U15G A28U G46C C57U C85A G86U U90A C95U C105U | ≤ -4.2
C14U C79G G84U C132U | ≤ -4.2
U15G A20U G25U C87U C103G U104G A121G G126U U134C C149A | ≤ -4.2
C14U G25C A26C G42A A60U G84A C108U G152A | ≤ -4.2
U15G A66C C87U C95U U104G | ≤ -4.2
U15G A29U G100U G124C | ≤ -4.2
C14U A17G C36G G126A | ≤ -4.2

Variant | polymerase ribozyme fitness (log ratio)
C14U A40U U44A G59C C87G U104G G124A | ≤ -4.2
C14U A49G C57U G71A C99G U104A G133C A137C | ≤ -4.2
C14G U90G C99U G136A | ≤ -4.2
U15C U145C A150G | -0.684
C14U C27G U56A G68A U104A | ≤ -4.2
C14U C43G A52C U53C C87G A91U | ≤ -4.2
U15A C27U C43G C51G U56A G80C C93A C118U A147U | ≤ -4.2
U15G A19G A49C A73U C114U | ≤ -4.2
C14U A41G U78G A137C | ≤ -4.2
U15C G50A A64G A73G C96U U102G | ≤ -4.2
U15G A24U A60G G92U | 0.475
U15G A30C U82G C87A C99G A110U A121U G136A | ≤ -4.2
U15A C27G A30U G68A A89U C95G A98U | ≤ -4.2
C14U C32A G70U G83U | ≤ -4.2
C14U U15G C38U C76U U82G C96A A106G U145G A150U | ≤ -4.2
C14U A19U A40U G67A C105G | ≤ -4.2
U15G A41U A73G | -1.57
C14U C54A G83U C108U G133U U135C | ≤ -4.2
C14U A17C C54U U135G | ≤ -4.2
C14U U33A C69A U82G U135C | ≤ -4.2
C14U C54A C57U G58C C75A C85A A119C C132A | ≤ -4.2
U15A A30G G58U A64C G92C C114G C123U G152A | ≤ -4.2
U15A A17U G42C A60C C75G C93A U109G C118U U135C U139A | ≤ -4.2
U15G A39U U82G G84A G112U | ≤ -4.2

Variant | polymerase ribozyme fitness (log ratio)
C14U C76A C85U | -2.67
C14U A20C A39G A52G U56A C96A A121U | -4
U15G A21U A73U C79G C85U U109G U144A | ≤ -4.2
C14U G74A C99A | ≤ -4.2
C14U C32A U56A G80C C87U U102G A142G | ≤ -4.2
C14U C54U | -1.87
C14U G94A A137U | ≤ -4.2
C14U A26U G34A U111G | ≤ -4.2
C14G U139G U144G | -1.38
C14U C93G | ≤ -4.2
U15A A29C G83C A89G C103A G136A | ≤ -4.2
U15G C18G G50C U53G G92A U148G | ≤ -4.2
U15A G67A U78G A106C A110G G141U | ≤ -4.2
U15G A20C C69G U130G | ≤ -4.2
C14U U15C C36A U53A A73U C95A A110U A113G C125G | ≤ -4.2
U15G A28C A60G C63U C85U C123U | ≤ -4.2
C14U A41G G83A A137U U151C | ≤ -4.2
U15G A19U A20U A29G U56A C57A C63U G94A U145G | ≤ -4.2
C14U A40C C54U C63A C95U A106C | ≤ -4.2
C14U C93A A110U | ≤ -4.2
U15A U31A C36A G50U A66G G68A C95G | ≤ -4.2
U15C A23C A30G U44A G70A C87A G141C | ≤ -4.2
U15A A28U C43G G83A C132U U134A U145C | ≤ -4.2
